Test results from PubChem BioAssay AID485367 (National Center for Advancing Translational Sciences (NCATS), 2010).
Out of some 330,000 compounds screened, about 560 (0.17%) were called active. This list was built around the results that the source calls inconclusive (neither active nor inactive); the mix of calls is not that of the screen. The call rests on the fitted dose curve; in most records, active means well fitted inhibition curve with a large enough effect; inconclusive means small, poorly fitted or top-dose-only effect, or effect the other way; inactive means flat fitted curve, though single readings scatter. No potency is given beside an inconclusive call; the fits are too rough.

These compounds were tested against ATP-dependent 6-phosphofructokinase (Trypanosoma brucei brucei) (UniProt O15648) (assay: qHTS Assay to Find Inhibitors of T. brucei phosphofructokinase). Details: T. brucei PFK, ADP-Glo luminescence; activity, negative = inhibition: at 57.5 µM (top of the series).
UniProt O15648, sequence (O15648 whole entry, looked up): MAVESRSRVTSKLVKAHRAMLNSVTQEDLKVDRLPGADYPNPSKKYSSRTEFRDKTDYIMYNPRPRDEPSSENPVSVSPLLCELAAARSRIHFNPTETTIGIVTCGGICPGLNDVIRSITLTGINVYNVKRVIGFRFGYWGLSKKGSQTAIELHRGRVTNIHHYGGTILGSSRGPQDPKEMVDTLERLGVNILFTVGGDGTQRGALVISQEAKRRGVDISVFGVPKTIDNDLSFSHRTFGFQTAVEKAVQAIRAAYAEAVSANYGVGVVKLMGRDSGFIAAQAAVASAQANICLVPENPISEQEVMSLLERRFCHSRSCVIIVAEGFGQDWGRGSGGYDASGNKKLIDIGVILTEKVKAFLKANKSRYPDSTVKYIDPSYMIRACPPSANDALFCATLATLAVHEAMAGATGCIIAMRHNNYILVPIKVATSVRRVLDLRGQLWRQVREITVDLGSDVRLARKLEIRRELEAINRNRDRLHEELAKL
How it was run: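 Luminescent ADP detection (ADP-Glo, two-step: ATP depletion then ADP-to-ATP conversion for luciferase) reported PFK activity after 45 min room-temperature reaction of 1.25 nM enzyme with 0.5 mM F6P and 0.1 mM ATP at pH 8.0.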
Further: nearly all actives have a fitted effect of over 60% in size.
Potency means the concentration at half of the fitted maximal effect; tags describe the fitted curve by direction and shape.
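Wherever activity, negative = inhibition is given: 0% = uninhibited 1x PFK enzyme wells and -100% = no-enzyme wells.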

| SMILES | Potency | activity, negative = inhibition |
| --- | --- | --- |
| COc1cc(/C=N\NC(=O)c2ccc(Cn3nc([N+](=O)[O-])c(Cl)c3C)o2)ccc1O | inconclusive [falling, single point] | – |
| NNc1nc2c(Cl)ccc(Cl)c2s1 | inconclusive [falling, single point] | – |
| C=C(C)C(=O)Nc1ccc(OC(F)(F)C(F)F)c(NC(=O)C(=C)C)c1 | inconclusive [falling, single point] | – |
| Cc1cc(NS(=O)(=O)c2ccc(NC(=O)Cc3ccc([N+](=O)[O-])cc3)cc2)no1 | active: 2.39 µM | – |
| Cc1cnc(C(=O)Nc2nccs2)cn1 | inconclusive [falling, single point] | – |
| Cc1ccc(C(=O)N/N=C/c2cccc(OC(=O)/C=C/c3ccco3)c2)cn1 | inconclusive [falling, single point] | – |
| COc1ccc2[nH]c3c(=O)n(/N=C/c4ccc(OC)c(CN5CCCC5)c4)c(C)nc3c2c1 | inconclusive [activator, single point] | – |
| Cc1cc(N/N=C/c2ccc([N+](=O)[O-])o2)nc2ccccc12 | – | inactive: 3.48% |
| O=C(O)C1C2C=CC(C2)C1C(=O)NCCc1ccncc1 (stereo not given) | inconclusive [falling, single point] | – |
| COc1cccc(NC(=O)c2oc3ccccc3c2NC(C)=O)c1 | – | inactive: 2.23% |
| Cc1ccnc(SCC(=O)N2CCN(c3cccc(Cl)c3)CC2)n1 | inconclusive [falling, partial curve] | – |
| CSC1CCCCC1(O)CSc1nc2c(cc1C#N)CCCC2 (stereo not given) | inconclusive [falling, single point] | – |
| CCC1(c2ccccc2)NC(=S)N(c2ccc(C)c(C)c2)N1 (stereo not given) | inconclusive [falling, single point] | – |
| CCOc1cc(/C=C2/SC(=S)NC2=O)ccc1OC(=O)c1ccco1 | – | inactive: -2.99% |
| O=C(Nc1ccc2nc(-c3ccc(Br)o3)[nH]c2c1)c1ccco1 | – | inactive: 1.26% |
| C=CCc1cccc(CNc2nc3ccccc3n2C)c1O | – | inactive: 0.178% |
| Oc1ccc(O)c(Cc2nc3ccccc3s2)c1 | active: 30.1 µM | – |
| CN(C)c1ccc(NC(=O)c2cccc(C(=O)Nc3ccc(N(C)C)cc3)n2)cc1 | inconclusive [activator, single point] | – |
| Cc1ccc(C(=O)O/N=C(\N)c2ccccn2)c(C)c1 | inconclusive [falling, partial curve] | – |
| Cc1cc(C)nc(NS(=O)(=O)c2ccc(NC(=O)C3COc4ccccc4O3)cc2)n1 (stereo not given) | inconclusive [falling, single point] | – |
